According to the supplement of paper PMC4967469:
Lines with a small IC50 respond at low doses; a fit beyond the top or the lowest dose is shown as a bound at that dose. The AUC spans the tested range (256-fold, ending at the top dose) of the same fit; it is 1 without any effect and falls as sensitivity rises. For some assays here: An inferred top dose was calculated from the reported fits. For some assays here: Drugs with an entry number were screened twice under separate entries, and the two screens often disagree.

How the values were obtained:
Experiment in all cases: Viability of human cancer cell lines after 72 h of drug (GDSC screen)
[1] = compound: CN(c1ncccc1CNc1nc(Nc2ccc3c(c2)CC(=O)N3)ncc1C(F)(F)F)S(C)(=O)=O [PF-562271]; conditions: top dose 2.56 µM; top dose inferred
Method: (§1)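 Human cancer cell lines in 384-well plates, medium with 10% serum, drug for 72 h over a 256-fold dose range (nine 2-fold or five 4-fold steps up to the top dose). Adherent lines were fixed and stained with the nucleic acid dye Syto60, suspension lines read with resazurin; signal relative to control wells, capped at 0 and 100%. One two-parameter sigmoid per drug and line, fitted in a mixed model over all curves with the slope shared within a line.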

[2] = compound: O=C(NC1CC1)c1cccc(-c2ccc3c(NC(=O)C4CC4)n[nH]c3c2)c1 [XMD13-2]; conditions: top dose 10.24 µM; top dose inferred
Method: as §1

[3] = compound: CN(C)C/C=C/C(=O)Nc1cc2c(Nc3ccc(F)c(Cl)c3)ncnc2cc1O[C@H]1CCOC1 [Afatinib]
Method: as §1

[4] = compound: CC1(C)CC(=O)c2c(C(F)(F)F)nn(-c3ccc(C(N)=O)c(N[C@H]4CC[C@H](O)CC4)c3)c2C1 [SNX-2112]; conditions: top dose 2.56 µM
Method: as §1

[5] = top dose 0.5 µM, screen: GDSC drug entry 1032
[6] = top dose 10 µM, screen: GDSC drug entry 1377, top dose inferred

Cell Line	AUC [1]	IC50 [1]	AUC [2]	IC50 [2]	AUC [3, 5]	IC50 [3, 5]	AUC [3, 6]	IC50 [3, 6]	AUC [4]	IC50 [4]
697 (lymphoblastic leukaemia, suspension)	0.896	2030 nM	0.803	3940 nM	0.977	> 500 nM	0.969	> 10000 nM	0.249	36.6 nM
769-P (kidney, adherent)	0.896	> 2560 nM	0.973	> 10200 nM	–	–	0.602	1220 nM	0.565	244 nM
786-0 (kidney, adherent)	0.881	2300 nM	0.854	7060 nM	–	–	0.953	> 10000 nM	0.409	92.2 nM
A172 (glioma, adherent)	0.929	> 2560 nM	0.94	> 10200 nM	–	–	0.981	> 10000 nM	0.828	1490 nM
A204 (rhabdomyosarcoma, adherent)	0.847	> 2560 nM	0.922	> 10200 nM	–	–	0.88	> 10000 nM	0.554	234 nM
A427 (non-small cell lung carcinoma, adherent)	0.931	> 2560 nM	0.981	> 10200 nM	0.985	> 500 nM	0.985	> 10000 nM	0.836	1720 nM
A673 (rhabdomyosarcoma, adherent)	0.969	> 2560 nM	0.945	> 10200 nM	–	–	0.977	> 10000 nM	0.855	1720 nM
A2780 (ovary, semi-adherent)	0.895	> 2560 nM	0.844	7750 nM	0.972	> 500 nM	0.978	> 10000 nM	0.23	25.4 nM
BC-3 (B-cell lymphoma, suspension)	0.95	> 2560 nM	0.872	8000 nM	–	–	–	–	0.288	43.6 nM
BCPAP (thyroid, adherent)	0.788	–	0.87	8080 nM	–	–	0.988	> 10000 nM	0.423	101 nM
BEN (non-small cell lung carcinoma, adherent)	0.958	> 2560 nM	0.977	> 10200 nM	–	–	0.984	> 10000 nM	0.913	> 2560 nM
BICR31 (head and neck, adherent)	0.913	> 2560 nM	0.946	> 10200 nM	–	–	–	–	0.533	197 nM
BT-474 (breast, adherent)	0.985	> 2560 nM	0.891	> 10200 nM	–	–	–	–	0.544	214 nM
BT-549 (breast, adherent)	–	–	–	–	0.977	> 500 nM	0.933	> 10000 nM	–	–
CAL-148 (breast, suspension)	0.959	> 2560 nM	0.911	> 10200 nM	–	–	–	–	0.386	79.8 nM
CHP-134 (neuroblastoma, suspension)	–	–	0.864	> 10200 nM	–	–	–	–	0.844	> 2560 nM
COR-L32 (small cell lung carcinoma, suspension)	–	–	–	–	–	–	0.903	> 10000 nM	–	–
COR-L303 (small cell lung carcinoma, suspension)	–	–	0.946	> 10200 nM	–	–	–	–	0.586	272 nM
COR-L311 (small cell lung carcinoma, suspension)	–	–	0.899	> 10200 nM	–	–	–	–	0.65	430 nM
Calu-3 (lung adenocarcinoma, adherent)	0.883	> 2560 nM	0.979	> 10200 nM	–	–	–	–	0.819	1970 nM
Caov-3 (ovary, adherent)	0.983	> 2560 nM	0.926	> 10200 nM	–	–	–	–	0.441	113 nM
ECC12 (stomach, suspension)	0.907	> 2560 nM	–	–	–	–	–	–	–	–
GA-10 (Burkitt lymphoma, suspension)	0.831	1290 nM	–	–	0.989	> 500 nM	0.977	> 10000 nM	–	–
H2810 (mesothelioma, adherent)	–	–	–	–	–	–	0.984	> 10000 nM	–	–

Cell Line	AUC [1]	IC50 [1]	AUC [2]	IC50 [2]	AUC [3, 5]	IC50 [3, 5]	AUC [3, 6]	IC50 [3, 6]	AUC [4]	IC50 [4]
HCC202 (breast, adherent)	–	–	–	–	0.797	354 nM	0.612	1440 nM	0.63	424 nM
HCC1187 (breast, suspension)	0.951	> 2560 nM	0.653	1660 nM	0.959	> 500 nM	0.987	> 10000 nM	–	–
HCC1428 (breast, adherent)	–	–	0.985	> 10200 nM	0.984	> 500 nM	0.986	> 10000 nM	0.96	> 2560 nM
HCC1599 (breast, suspension)	0.939	> 2560 nM	0.863	> 10200 nM	–	–	–	–	0.384	73 nM
HCC-33 (small cell lung carcinoma, adherent)	0.97	> 2560 nM	0.894	> 10200 nM	–	–	–	–	0.802	1280 nM
HCC-827 (lung adenocarcinoma, adherent)	–	–	0.967	> 10200 nM	–	–	–	–	0.907	> 2560 nM
HCE-4 (oesophagus, adherent)	0.984	> 2560 nM	0.992	> 10200 nM	–	–	–	–	0.985	> 2560 nM
HCT-116 (large intestine, adherent)	0.835	1560 nM	0.774	3810 nM	–	–	–	–	0.341	59.5 nM
HPAC (pancreas, adherent)	0.903	> 2560 nM	0.91	> 10200 nM	–	–	–	–	0.492	150 nM
Hs940-T (melanoma, adherent)	–	–	0.91	> 10200 nM	–	–	0.978	> 10000 nM	0.984	> 2560 nM
IM-95 (stomach, adherent)	0.83	1760 nM	0.877	> 10200 nM	–	–	–	–	0.463	126 nM
Jurkat (T-cell leukaemia, suspension)	–	–	–	–	0.993	> 500 nM	0.972	> 10000 nM	–	–
K-562 (chronic myeloid leukaemia, suspension)	–	–	0.883	> 10200 nM	–	–	–	–	–	–
KP-N-YS (neuroblastoma, adherent)	0.933	> 2560 nM	0.629	1530 nM	–	–	–	–	0.448	113 nM
KYSE-180 (oesophagus, adherent)	0.832	1540 nM	0.938	> 10200 nM	–	–	–	–	0.382	77.1 nM
MCF7 (breast, adherent)	0.888	> 2560 nM	0.986	> 10200 nM	–	–	–	–	0.986	> 2560 nM
MDA-MB-231 (breast, adherent)	–	–	0.976	> 10200 nM	0.979	> 500 nM	0.964	> 10000 nM	0.986	> 2560 nM
MM1S (myeloma, suspension)	–	–	–	–	0.985	> 500 nM	–	–	–	–
NCI-H460 (large cell lung carcinoma, adherent)	0.881	2250 nM	0.99	> 10200 nM	–	–	–	–	0.49	151 nM
NCI-H748 (small cell lung carcinoma, suspension)	0.923	> 2560 nM	0.9	> 10200 nM	–	–	–	–	0.962	> 2560 nM
NCI-H1793 (lung adenocarcinoma, adherent)	–	–	0.982	> 10200 nM	–	–	0.922	> 10000 nM	0.98	> 2560 nM
NCI-H1915 (large cell lung carcinoma, adherent)	0.955	> 2560 nM	0.927	> 10200 nM	–	–	–	–	0.421	96.8 nM
NCI-H2030 (lung adenocarcinoma, adherent)	–	–	0.924	> 10200 nM	–	–	0.852	9450 nM	0.463	125 nM
NCI-H2066 (small cell lung carcinoma, adherent)	–	–	–	–	–	–	0.976	> 10000 nM	–	–

Cell Line	AUC [1]	IC50 [1]	AUC [2]	IC50 [2]	AUC [3, 5]	IC50 [3, 5]	AUC [3, 6]	IC50 [3, 6]	AUC [4]	IC50 [4]
NCI-H2122 (lung adenocarcinoma, adherent)	0.875	2240 nM	0.975	> 10200 nM	–	–	–	–	0.816	1300 nM
NCI-H2170 (lung squamous cell carcinoma, adherent)	0.934	> 2560 nM	0.985	> 10200 nM	–	–	–	–	0.939	> 2560 nM
NCI-H2171 (small cell lung carcinoma, suspension)	0.945	> 2560 nM	0.896	9680 nM	–	–	–	–	0.695	518 nM
NCI-H2196 (small cell lung carcinoma, adherent)	0.977	> 2560 nM	0.937	> 10200 nM	–	–	–	–	0.487	147 nM
NCI-H2228 (lung adenocarcinoma, adherent)	0.951	> 2560 nM	0.953	> 10200 nM	–	–	–	–	0.813	2410 nM
NK-92MI (lymphoid neoplasm, suspension)	0.887	2510 nM	–	–	–	–	–	–	–	–
PC-3 (prostate, adherent)	–	–	0.949	> 10200 nM	–	–	–	–	0.51	172 nM
SCC-3 (B-cell lymphoma, suspension)	0.981	> 2560 nM	0.839	4390 nM	–	–	–	–	0.496	157 nM
SIG-M5 (acute myeloid leukaemia, suspension)	0.838	1150 nM	0.894	6920 nM	–	–	–	–	0.068	10.5 nM
SK-OV-3 (ovary, adherent)	0.887	> 2560 nM	0.901	> 10200 nM	–	–	–	–	0.469	129 nM
SKM-1 (haematopoietic neoplasm, suspension)	–	–	–	–	–	–	0.908	> 10000 nM	–	–
SNU-175 (large intestine, suspension)	–	–	0.749	3150 nM	–	–	–	–	0.285	41.2 nM
SNU-475 (liver, adherent)	0.991	> 2560 nM	0.957	> 10200 nM	–	–	–	–	0.624	336 nM
SNU-1040 (large intestine, adherent)	–	–	0.834	10100 nM	–	–	0.905	> 10000 nM	0.837	> 2560 nM
SU-DHL-1 (anaplastic large cell lymphoma, suspension)	0.997	> 2560 nM	0.732	2330 nM	–	–	–	–	0.32	58.8 nM
SW900 (lung squamous cell carcinoma, adherent)	0.95	> 2560 nM	0.982	> 10200 nM	–	–	–	–	0.908	> 2560 nM
SW1116 (large intestine, adherent)	–	–	0.983	> 10200 nM	–	–	0.764	4920 nM	0.985	> 2560 nM
TALL-1 (T-cell lymphoblastic leukaemia, suspension)	0.97	> 2560 nM	0.955	> 10200 nM	–	–	–	–	0.607	309 nM
TE-441-T (rhabdomyosarcoma, adherent)	0.936	> 2560 nM	0.949	> 10200 nM	–	–	–	–	0.366	69.5 nM
THP-1 (acute myeloid leukaemia, suspension)	0.971	> 2560 nM	0.925	> 10200 nM	–	–	–	–	0.287	43 nM
UACC-812 (breast, adherent)	0.989	> 2560 nM	0.989	> 10200 nM	–	–	–	–	0.991	> 2560 nM
VM-CUB-1 (bladder, adherent)	0.901	> 2560 nM	0.967	> 10200 nM	–	–	–	–	0.76	875 nM
YMB-1-E (breast, adherent)	–	–	0.936	> 10200 nM	–	–	–	–	0.836	> 2560 nM
